Data published in the supplement of paper PMC7826260.
The list shows a part of the results. One pool of 16,384 single-stranded DNAs met each Rep nickase domain in vitro for 1 h at 37 °C with 3 µM enzyme; only the middle of the 90-letter strands is printed. Values are log2 of uncut reads against the no-enzyme pool; uncut sequences lie near 0, cut ones below; no hit call is given. Counts are relative to all reads; uncut strands gain when others are lost, and binding without cutting may add a little.

System: T1, Rep nickase domain of maize striate mosaic virus
T1 sequence (Rep 1-117, printed without the tag): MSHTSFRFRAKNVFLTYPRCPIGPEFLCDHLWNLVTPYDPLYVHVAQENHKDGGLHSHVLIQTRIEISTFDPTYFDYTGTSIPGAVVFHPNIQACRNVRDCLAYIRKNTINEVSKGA
Test: uncleaved DNA left, log2 of reads against the no-enzyme library (log2 ratio); higher = less cleavage (more negative = more Rep cleavage of the k-mer); sequences stand for … in CTCGTCCG…ACCGGAGA
Description: (§1)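 A pool of 90-nt single-stranded DNAs with seven random bases just before the constant AC of the nick site (name = the seven bases) was cut by 3 µM recombinant His6-SUMO-tagged Rep nickase domain (300 nM DNA, 50 mM HEPES pH 8.0, 50 mM NaCl, 1 mM MnCl2, 1 h, 37 °C, three replicates). Uncut DNA was amplified and sequenced.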

Row | Sequence | uncleaved DNA left (log2)
1 | ACCACAG | -0.443
2 | GACTTAT | 0.915
3 | TGACCTT | 1.12
4 | GCTCACA | 0.39
5 | AAACTCT | -0.882
6 | ACAGAGT | -1.06
7 | CGTCTAG | -0.91
8 | CGCCATT | -0.367
9 | AAATGGG | -0.993
10 | GATGGGC | 1.17
11 | AGGATGC | -0.725
12 | TGCTATG | -0.11
13 | CTTTGGA | -0.965
14 | GGTGTAA | 2.03
15 | CCTTATT | -0.879
16 | GGCGATC | 1.48
17 | TATATTC | -0.86
18 | GGATACA | 1.57
19 | GTACGCA | 0.624
20 | AATCACA | -0.639

Row | Sequence | uncleaved DNA left (log2)
21 | CACAGTT | -0.0982
22 | GGTTTGG | 0.0019
23 | GTATGAA | 1.45
24 | GGGCATC | 2.23
25 | AGTCATT | 0.532
26 | GGCCTGT | 1.77
27 | TCTAAAC | -0.453
28 | AGGCAAG | -0.913
29 | CTGTCAC | -0.645
30 | TTGACCG | -0.627
31 | CAAGCAC | -0.661
32 | GACCCGC | 0.636
33 | GTGTAGG | 1.23
34 | ATATAGG | 0.365
35 | CGGCCGA | -0.274
36 | AGGGGTG | 0.18
37 | TACGGCG | -0.714
38 | TACATTC | -0.665
39 | GACAGGT | 1.3
40 | TATGTGG | -0.122

System: T2, Rep nickase domain of porcine circovirus 2
T2 sequence (Rep 2-116, printed without the tag): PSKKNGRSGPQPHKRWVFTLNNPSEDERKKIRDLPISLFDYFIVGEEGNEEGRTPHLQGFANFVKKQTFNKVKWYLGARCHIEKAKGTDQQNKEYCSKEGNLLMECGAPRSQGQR
Test: as above
Description: as §1

Row | Sequence | uncleaved DNA left (log2)
41 | ACCACAG | 0.269
42 | GACTTAT | -3.18
43 | TGACCTT | -0.122
44 | GCTCACA | 0.0233
45 | AAACTCT | -0.588
46 | ACAGAGT | 0.102
47 | CGTCTAG | 0.239
48 | CGCCATT | -0.812
49 | AAATGGG | 0.109
50 | GATGGGC | 0.288
51 | AGGATGC | 0.161
52 | TGCTATG | 0.0999
53 | CTTTGGA | 0.0123
54 | GGTGTAA | 0.12
55 | CCTTATT | -3.22
56 | GGCGATC | 0.204
57 | TATATTC | -0.0556
58 | GGATACA | 0.0992
59 | GTACGCA | -0.0039
60 | AATCACA | 0.0328

Row | Sequence | uncleaved DNA left (log2)
61 | CACAGTT | -2.17
62 | GGTTTGG | 0.0604
63 | GTATGAA | 0.05
64 | GGGCATC | 0.143
65 | AGTCATT | -3.46
66 | GGCCTGT | 0.184
67 | TCTAAAC | 0.124
68 | AGGCAAG | 0.0737
69 | CTGTCAC | -0.0474
70 | TTGACCG | 0.0308
71 | CAAGCAC | 0.124
72 | GACCCGC | -0.0617
73 | GTGTAGG | 0.123
74 | ATATAGG | 0.104
75 | CGGCCGA | 0.173
76 | AGGGGTG | 0.0744
77 | TACGGCG | 0.109
78 | TACATTC | 0.202
79 | GACAGGT | 0.14
80 | TATGTGG | 0.0978

System: T3, Rep nickase domain of tomato yellow leaf curl virus
T3 sequence (Rep 1-136, printed without the tag): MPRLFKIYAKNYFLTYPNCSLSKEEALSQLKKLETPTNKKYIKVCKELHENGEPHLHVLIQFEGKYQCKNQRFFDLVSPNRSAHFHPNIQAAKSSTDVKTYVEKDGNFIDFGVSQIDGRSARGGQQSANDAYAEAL
Test: as above
Description: as §1

Row | Sequence | uncleaved DNA left (log2)
81 | ACCACAG | 0.0366
82 | GACTTAT | -0.0656
83 | TGACCTT | 0.228
84 | GCTCACA | 0.0437
85 | AAACTCT | -0.104
86 | ACAGAGT | 0.0532
87 | CGTCTAG | -0.0768
88 | CGCCATT | 0.0713
89 | AAATGGG | 0.0604
90 | GATGGGC | 0.0371
91 | AGGATGC | -0.0213
92 | TGCTATG | 0.000526
93 | CTTTGGA | -0.0741
94 | GGTGTAA | 0.115
95 | CCTTATT | 0.0134
96 | GGCGATC | 0.0607
97 | TATATTC | -0.012
98 | GGATACA | -0.0146
99 | GTACGCA | -0.0555
100 | AATCACA | 0.0105

Row | Sequence | uncleaved DNA left (log2)
101 | CACAGTT | 0.0216
102 | GGTTTGG | 0.0802
103 | GTATGAA | 0.0954
104 | GGGCATC | -0.0466
105 | AGTCATT | 0.15
106 | GGCCTGT | 0.0464
107 | TCTAAAC | 0.00963
108 | AGGCAAG | -0.0543
109 | CTGTCAC | 0.0424
110 | TTGACCG | -0.0315
111 | CAAGCAC | -0.0629
112 | GACCCGC | 0.103
113 | GTGTAGG | 0.0504
114 | ATATAGG | -0.0124
115 | CGGCCGA | 0.149
116 | AGGGGTG | -0.174
117 | TACGGCG | 0.0424
118 | TACATTC | 0.0913
119 | GACAGGT | 0.0444
120 | TATGTGG | -0.0274
